Some of the results follow.
Legend:
Assay in all cases: glycan array binding signal (z-score within array); higher = stronger binding
Conditions in all cases: glycan notation: IUPAC condensed, linker removed
Gal(b1-3)GalNAc(b1-3)Gal = target: Gal(b1-3)GalNAc(b1-3)Gal
Outline: (§1)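 The binding signal is a Z-score computed within each array. Data were drawn from 3228 arrays in the Consortium for Functional Glycomics database, restricted to those with a known protein sequence. Scores were averaged over arrays of the same protein sequence at different concentrations or buffers, and over linkers, and negative values can be taken as non-binding.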

[1] = target: Gal(b1-3)GalNAc(b1-3)Gal(a1-4)Gal(b1-4)Glc
Outline: as §1

[2] = target: Gal(b1-3)GalNAc(b1-3)Gal(b1-4)Glc
Outline: as §1

[3] = target: Gal(b1-3)GalNAc(b1-3)Gal(b1-4)GlcNAc
Outline: as §1

[4] = target: Gal(b1-3)GalNAc(b1-4)Gal(b1-4)Glc
Outline: as §1

[5] = target: Gal(b1-3)GalNAc(b1-4)[Neu5Ac(a2-3)]Gal(b1-4)Glc
Outline: as §1

Gal(b1-3)GlcNAc = target: Gal(b1-3)GlcNAc
Outline: as §1

[6] = target: Gal(b1-3)GlcNAc(a1-3)Gal(b1-4)GlcNAc
Outline: as §1

[7] = target: Gal(b1-3)GlcNAc(a1-6)Gal(b1-4)GlcNAc
Outline: as §1

Gal(b1-3)GlcNAc(b1-2)Man = target: Gal(b1-3)GlcNAc(b1-2)Man
Outline: as §1

[8] = target: Gal(b1-3)GlcNAc(b1-2)Man(a1-3)[Gal(b1-3)GlcNAc(b1-2)Man(a1-6)]Man(b1-4)GlcNAc(b1-4)GlcNAc
Outline: as §1

[9] = target: Gal(b1-3)GlcNAc(b1-2)Man(a1-3)[Gal(b1-3)GlcNAc(b1-2)Man(a1-6)]Man(b1-4)GlcNAc(b1-4)[Fuc(a1-6)]GlcNAc
Outline: as §1

[10] = target: Gal(b1-3)GlcNAc(b1-2)Man(a1-3)[GlcNAc(b1-4)][Gal(b1-3)GlcNAc(b1-2)Man(a1-6)]Man(b1-4)GlcNAc(b1-4)GlcNAc
Outline: as §1

[11] = target: Gal(b1-3)GlcNAc(b1-2)[Gal(b1-3)GlcNAc(b1-6)]Man(a1-6)[Gal(b1-3)GlcNAc(b1-2)Man(a1-3)]Man(b1-4)GlcNAc(b1-4)GlcNAc
Outline: as §1

[12] = target: Gal(b1-3)GlcNAc(b1-3)Gal(b1-3)GlcNAc
Outline: as §1

[13] = target: Gal(b1-3)GlcNAc(b1-3)Gal(b1-4)Glc
Outline: as §1

[14] = target: Gal(b1-3)GlcNAc(b1-3)Gal(b1-4)GlcNAc
Outline: as §1

[15] = target: Gal(b1-3)GlcNAc(b1-3)Gal(b1-4)GlcNAc(b1-2)Man(a1-3)[Gal(b1-3)GlcNAc(b1-3)Gal(b1-4)GlcNAc(b1-2)Man(a1-6)]Man(b1-4)GlcNAc(b1-4)GlcNAc
Outline: as §1

[16] = target: Gal(b1-3)GlcNAc(b1-3)Gal(b1-4)GlcNAc(b1-2)[Gal(b1-3)GlcNAc(b1-3)Gal(b1-4)GlcNAc(b1-6)]Man(a1-6)[Gal(b1-3)GlcNAc(b1-3)Gal(b1-4)GlcNAc(b1-2)Man(a1-3)]Man(b1-4)GlcNAc(b1-4)[Fuc(a1-6)]GlcNAc
Outline: as §1

[17] = target: Gal(b1-3)GlcNAc(b1-3)Gal(b1-4)GlcNAc(b1-3)Gal(b1-4)GlcNAc(b1-2)[Gal(b1-3)GlcNAc(b1-3)Gal(b1-4)GlcNAc(b1-3)Gal(b1-4)GlcNAc(b1-6)]Man(a1-6)[Gal(b1-3)GlcNAc(b1-3)Gal(b1-4)GlcNAc(b1-3)Gal(b1-4)GlcNAc(b1-2)Man(a1-3)]Man(b1-4)GlcNAc(b1-4)[Fuc(a1-6)]GlcNAc
Outline: as §1

[18] = target: Gal(b1-3)GlcNAc(b1-3)Gal(b1-4)GlcNAc(b1-6)[Gal(b1-3)GlcNAc(b1-3)]Gal(b1-4)Glc
Outline: as §1

[19] = target: Gal(b1-3)GlcNAc(b1-3)Gal(b1-4)[Fuc(a1-3)]GlcNAc
Outline: as §1

[20] = target: Gal(b1-3)GlcNAc(b1-3)Gal(b1-4)[Fuc(a1-3)]GlcNAc(b1-6)[Gal(b1-3)GlcNAc(b1-3)]Gal(b1-4)Glc
Outline: as §1

[21] = target: Gal(b1-3)GlcNAc(b1-3)GalNAc
Outline: as §1

[22] = target: Gal(b1-3)GlcNAc(b1-6)Gal(b1-4)GlcNAc
Outline: as §1

[23] = target: Gal(b1-3)GlcNAc(b1-6)GalNAc
Outline: as §1

[24] = target: Gal(b1-3)GlcNAc(b1-6)[Gal(b1-3)]GalNAc
Outline: as §1

Gal(b1-3)GlcNAc6S = target: Gal(b1-3)GlcNAc6S
Outline: as §1

[25] = target: Gal(b1-3)[Fuc(a1-4)]GlcNAc
Outline: as §1

[26] = target: Gal(b1-3)[Fuc(a1-4)]GlcNAc(b1-2)Man
Outline: as §1

[27] = target: Gal(b1-3)[Fuc(a1-4)]GlcNAc(b1-2)Man(a1-3)[Gal(b1-3)[Fuc(a1-4)]GlcNAc(b1-2)Man(a1-6)]Man(b1-4)GlcNAc(b1-4)[Fuc(a1-6)]GlcNAc
Outline: as §1

[28] = target: Gal(b1-3)[Fuc(a1-4)]GlcNAc(b1-3)Gal(b1-3)[Fuc(a1-4)]GlcNAc
Outline: as §1

[29] = target: Gal(b1-3)[Fuc(a1-4)]GlcNAc(b1-3)Gal(b1-4)GlcNAc
Outline: as §1

[30] = target: Gal(b1-3)[Fuc(a1-4)]GlcNAc(b1-3)Gal(b1-4)[Fuc(a1-3)]GlcNAc
Outline: as §1

[31] = target: Gal(b1-3)[Fuc(a1-4)]GlcNAc(b1-6)GalNAc
Outline: as §1

[32] = target: Gal(b1-3)[GlcNAc(b1-6)]GalNAc
Outline: as §1

[33] = target: Gal(b1-3)[GlcNAc(b1-6)]GlcNAc
Outline: as §1

[34] = target: Gal(b1-3)[Neu5Ac(a2-6)]GalNAc
Outline: as §1

[35] = target: Gal(b1-3)[Neu5Ac(a2-6)]GlcNAc
Outline: as §1

[36] = target: Gal(b1-3)[Neu5Ac(a2-6)]GlcNAc(a1-4)Gal(b1-4)Glc
Outline: as §1

[37] = target: Gal(b1-3)[Neu5Ac(a2-6)]GlcNAc(b1-4)Gal(b1-4)Glc
Outline: as §1

[38] = target: Gal(b1-3)[Neu5Ac(a2-6)]GlcNAc(b1-6)Gal(b1-4)Glc
Outline: as §1

[39] = target: Gal(b1-3)[Neu5Ac(b2-6)]GalNAc
Outline: as §1

[40] = target: Gal(b1-3)[Neu5Ac(b2-6)]GlcNAc
Outline: as §1

Gal(b1-4)Gal = target: Gal(b1-4)Gal
Outline: as §1

B1: Gal 7 (Homo sapiens) (protein)
chain: MSNVPHKSSLPEGIRPGTVLRIRGLVPPNASRFHVNLLCGEEGGSDAALHFNPRLDTSEVVFNSKEGGSWGREERGPGVPFGRGQPFEVLIIASDDGFKAVVGDAQYHHFRHRLPLARVRLVEVGGDVQLDSVRIF
Gal(b1-3)GalNAc(b1-3)Gal
  glycan array binding signal (z-score): -0.119
[1]
  glycan array binding signal (z-score): -0.224
[2]
  glycan array binding signal (z-score): 1.38
[3]
  glycan array binding signal (z-score): 0.962
[4]
  glycan array binding signal (z-score): -0.308
[5]
  glycan array binding signal (z-score): -0.318
Gal(b1-3)GlcNAc
  glycan array binding signal (z-score): -0.304
[6]
  glycan array binding signal (z-score): -0.126
[7]
  glycan array binding signal (z-score): -0.327
Gal(b1-3)GlcNAc(b1-2)Man
  glycan array binding signal (z-score): -0.229
[8]
  glycan array binding signal (z-score): -0.047
[9]
  glycan array binding signal (z-score): 0.027
[10]
  glycan array binding signal (z-score): 0.217
[11]
  glycan array binding signal (z-score): 0.045
[12]
  glycan array binding signal (z-score): 0.415
[13]
  glycan array binding signal (z-score): -0.166
[14]
  glycan array binding signal (z-score): -0.193
[15]
  glycan array binding signal (z-score): -0.199
[16]
  glycan array binding signal (z-score): 0.02
[17]
  glycan array binding signal (z-score): 0.186
[18]
  glycan array binding signal (z-score): -0.216
[19]
  glycan array binding signal (z-score): -0.245
[20]
  glycan array binding signal (z-score): -0.256
[21]
  glycan array binding signal (z-score): 0.04
[22]
  glycan array binding signal (z-score): -0.33
[23]
  glycan array binding signal (z-score): -0.164
[24]
  glycan array binding signal (z-score): -0.261
Gal(b1-3)GlcNAc6S
  glycan array binding signal (z-score): -0.108
[25]
  glycan array binding signal (z-score): -0.24
[26]
  glycan array binding signal (z-score): -0.213
[27]
  glycan array binding signal (z-score): 0.341
[28]
  glycan array binding signal (z-score): -0.178
[29]
  glycan array binding signal (z-score): 0.808
[30]
  glycan array binding signal (z-score): -0.289
[31]
  glycan array binding signal (z-score): -0.063
[32]
  glycan array binding signal (z-score): -0.314
[33]
  glycan array binding signal (z-score): -0.377
[34]
  glycan array binding signal (z-score): -0.266
[35]
  glycan array binding signal (z-score): -0.32
[36]
  glycan array binding signal (z-score): 0.731
[37]
  glycan array binding signal (z-score): -0.3
[38]
  glycan array binding signal (z-score): -0.351
[39]
  glycan array binding signal (z-score): -0.34
[40]
  glycan array binding signal (z-score): -0.384
Gal(b1-4)Gal
  glycan array binding signal (z-score): -0.214

Source: the supplement of paper PMC8728848
